From PMC5700166
The list shows a part of the results, in another mix than the full data. The list includes weakly bound sequences.

How the values were obtained:
Test in all cases: protein-binding microarray (PBM)
Details in all cases: PBM: ~300 nM protein, 6 mM HEPES pH 7.8, 80 mM KCl, 0.5 mM EDTA, 0.5 mM EGTA, 6% glycerol, 35 ng/ul poly-dIdC, 1% milk, 1 h, room temperature; Ap Aiptasia and Nv Nematostella (sea anemones) / Co Capsaspora / Aq Amphimedon (sponge) / Dm Drosophila / Hu human; RHD is the Rel homology domain; high values mean tight binding; most listed sequences are background and not binding sites; double strand, one strand shown
[1] = target: T1, GST-Ap-NF-kB RHD (UniProt A0A913YAJ5)
T1 sequence: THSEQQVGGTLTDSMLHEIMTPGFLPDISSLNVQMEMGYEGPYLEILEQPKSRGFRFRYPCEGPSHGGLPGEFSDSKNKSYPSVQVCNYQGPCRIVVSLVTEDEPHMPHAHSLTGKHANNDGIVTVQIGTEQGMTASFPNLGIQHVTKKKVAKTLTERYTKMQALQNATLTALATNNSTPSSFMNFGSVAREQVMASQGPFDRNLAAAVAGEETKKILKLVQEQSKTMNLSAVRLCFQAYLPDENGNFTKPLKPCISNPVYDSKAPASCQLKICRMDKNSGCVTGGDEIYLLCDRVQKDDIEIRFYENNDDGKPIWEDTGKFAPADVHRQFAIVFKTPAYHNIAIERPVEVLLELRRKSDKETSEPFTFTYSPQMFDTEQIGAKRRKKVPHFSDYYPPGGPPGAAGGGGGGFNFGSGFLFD

[2] = target: T2, GST-Nv-NF-kB (Cys allele) (UniProt E5G601)
T2 sequence: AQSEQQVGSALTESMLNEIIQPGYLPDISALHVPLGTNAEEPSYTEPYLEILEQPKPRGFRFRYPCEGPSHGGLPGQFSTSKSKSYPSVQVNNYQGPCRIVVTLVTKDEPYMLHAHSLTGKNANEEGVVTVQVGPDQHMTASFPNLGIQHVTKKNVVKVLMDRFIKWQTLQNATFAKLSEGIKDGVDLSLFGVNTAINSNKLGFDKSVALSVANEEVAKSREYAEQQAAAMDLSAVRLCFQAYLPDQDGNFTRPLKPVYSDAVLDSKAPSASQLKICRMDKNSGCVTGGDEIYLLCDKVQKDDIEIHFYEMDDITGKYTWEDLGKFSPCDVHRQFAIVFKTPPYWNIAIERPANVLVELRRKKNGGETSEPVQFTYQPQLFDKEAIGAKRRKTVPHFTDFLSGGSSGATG

[3] = target: T3, GST-Co-NF-kB (UniProt F1ARL5)
T3 sequence: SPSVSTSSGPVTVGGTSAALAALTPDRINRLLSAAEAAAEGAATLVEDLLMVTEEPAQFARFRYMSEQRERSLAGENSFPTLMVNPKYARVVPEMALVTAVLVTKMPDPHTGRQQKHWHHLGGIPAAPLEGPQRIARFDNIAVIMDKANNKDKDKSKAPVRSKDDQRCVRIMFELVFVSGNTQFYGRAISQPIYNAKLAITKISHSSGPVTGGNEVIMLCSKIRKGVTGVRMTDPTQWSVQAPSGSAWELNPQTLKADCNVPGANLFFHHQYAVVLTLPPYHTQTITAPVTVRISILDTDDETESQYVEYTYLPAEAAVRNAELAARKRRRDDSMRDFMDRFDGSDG

[4] = target: T4, GST-Dm-Relish (UniProt Q94527)
T4 sequence: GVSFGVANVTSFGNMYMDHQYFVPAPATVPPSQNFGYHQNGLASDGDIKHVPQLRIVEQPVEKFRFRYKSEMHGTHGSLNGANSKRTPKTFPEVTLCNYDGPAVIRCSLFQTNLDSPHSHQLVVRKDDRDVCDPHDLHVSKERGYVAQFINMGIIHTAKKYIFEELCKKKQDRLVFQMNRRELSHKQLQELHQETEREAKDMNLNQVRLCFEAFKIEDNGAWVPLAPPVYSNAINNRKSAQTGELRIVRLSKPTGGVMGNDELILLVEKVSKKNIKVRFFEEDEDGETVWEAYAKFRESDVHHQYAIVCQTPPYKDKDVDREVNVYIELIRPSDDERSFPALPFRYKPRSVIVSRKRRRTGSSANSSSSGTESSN

[5] = target: T5, GST-Aq-NF-kB (UniProt A9Y5G7)
T5 sequence: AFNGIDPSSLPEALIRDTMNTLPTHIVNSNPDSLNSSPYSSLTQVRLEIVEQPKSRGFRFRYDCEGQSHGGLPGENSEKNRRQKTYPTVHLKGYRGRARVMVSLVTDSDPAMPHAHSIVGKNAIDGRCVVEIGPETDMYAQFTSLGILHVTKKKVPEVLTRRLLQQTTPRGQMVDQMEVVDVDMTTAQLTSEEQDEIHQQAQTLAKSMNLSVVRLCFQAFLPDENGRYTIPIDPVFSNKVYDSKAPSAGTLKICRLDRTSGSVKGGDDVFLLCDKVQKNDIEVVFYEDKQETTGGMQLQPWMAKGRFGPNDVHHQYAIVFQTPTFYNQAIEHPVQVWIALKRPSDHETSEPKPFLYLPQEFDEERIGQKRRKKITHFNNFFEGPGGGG

Row | Sequence | binding signal [1] [z-score] | binding signal [2] [z-score] | binding signal [3] [z-score] | binding signal [4] [z-score] | binding signal [5] [z-score]
1 | CCGATTAACATCATGCTCGCCCATGATGTTAATCGGGTCTTGATTCGCTTGACGCTGCTG | -0.301 | -0.0299 | 0.0408 | -0.857 | -0.431
2 | CCGATTAACATCAAATTTCCAAATGATGTTAATCGGGTCTTGATTCGCTTGACGCTGCTG | -0.696 | -0.399 | -0.471 | 0.661 | 0.286
3 | CCGATTAACATCAGGAATTTCGATGATGTTAATCGGGTCTTGATTCGCTTGACGCTGCTG | 0.024 | 0.544 | -0.746 | 0.432 | 0.0404
4 | CCGATTAACATCACGCTGCACGCTGATGTTAATCGGGTCTTGATTCGCTTGACGCTGCTG | -0.309 | -0.689 | -1.03 | -0.233 | -0.241
5 | CCGATTAACATCATTGAGACGCTTGATGTTAATCGGGTCTTGATTCGCTTGACGCTGCTG | -0.276 | -0.404 | -1.25 | -1.12 | -0.646
6 | CCGATTAACATCATGACTTAGAATGATGTTAATCGGGTCTTGATTCGCTTGACGCTGCTG | -0.749 | -0.218 | -0.227 | -0.665 | -0.493
7 | CCGATTAACATCAGCGCCGTGTGTGATGTTAATCGGGTCTTGATTCGCTTGACGCTGCTG | 0.188 | -0.435 | -0.345 | 0.979 | -0.184
8 | CCGATTAACATCATAGTATAAGATGATGTTAATCGGGTCTTGATTCGCTTGACGCTGCTG | -0.494 | -0.59 | -0.277 | -0.487 | -0.203
9 | CCGATTAACATCATAATGCGCAATGATGTTAATCGGGTCTTGATTCGCTTGACGCTGCTG | -0.234 | 0.286 | -1.23 | -0.505 | -0.294
10 | CCGATTAACATCAGCGCTCGGCCTGATGTTAATCGGGTCTTGATTCGCTTGACGCTGCTG | 0.343 | 0.0426 | -0.93 | -0.223 | -0.168
11 | CCGATTAACATCATTGGTACGTTTGATGTTAATCGGGTCTTGATTCGCTTGACGCTGCTG | 0.498 | -0.105 | 0.296 | 0.355 | -0.279
12 | CCGATTAACATCATAGGAGTTCTTGATGTTAATCGGGTCTTGATTCGCTTGACGCTGCTG | -0.0929 | -0.193 | -0.00984 | -0.414 | -0.408
13 | CCGATTAACATCATACCGGGCTTTGATGTTAATCGGGTCTTGATTCGCTTGACGCTGCTG | -0.604 | -0.635 | -1.16 | -0.665 | 0.281
14 | CCGATTAACATCAACCCGAGTCGTGATGTTAATCGGGTCTTGATTCGCTTGACGCTGCTG | -0.242 | -0.289 | 0.851 | -0.35 | -0.0629
15 | CCGATTAACATCAGAATTTCCACTGATGTTAATCGGGTCTTGATTCGCTTGACGCTGCTG | -0.0504 | -0.308 | -0.0916 | 0.545 | 0.954
16 | CCGATTAACATCATACCTCCCGTTGATGTTAATCGGGTCTTGATTCGCTTGACGCTGCTG | 0.188 | 0.434 | 1.01 | -0.174 | 0.765
